The list shows a part of the results.

The assay concerns the target T1, OsWOX13 (Oryza sativa, UniProt Q5QMM3 1-267).
T1 sequence: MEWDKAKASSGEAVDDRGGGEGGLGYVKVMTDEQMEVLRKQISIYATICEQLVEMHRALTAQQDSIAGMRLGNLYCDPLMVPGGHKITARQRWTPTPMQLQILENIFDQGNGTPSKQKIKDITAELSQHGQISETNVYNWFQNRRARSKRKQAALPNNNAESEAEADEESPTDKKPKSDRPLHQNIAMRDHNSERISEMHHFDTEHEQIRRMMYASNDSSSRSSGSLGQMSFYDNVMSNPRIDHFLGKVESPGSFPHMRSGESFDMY
Kind of assay: protein-binding microarray (RPBM); PBS, 2% BSA, 51.3 ng/ul salmon testes DNA, 50 uM zinc acetate, 200 nM TF, 25 C, 1 h; high values mean tight binding. The conditions noted are these: protein: recombinant; tags: N-terminal polyhistidine and DsRed monomer fusion (pET32a); label: CyDye5-dUTP incorporated in the synthesized complementary strand; 3' TTTTT single-stranded linker to array surface; dsDNA, one strand shown. The method in brief: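 Per-feature fluorescence intensity (arbitrary units), read on an Axon 4000B scanner, is the binding signal. Transcription factors carrying an N-terminal polyhistidine tag and DsRed fusion were expressed in E. coli BL21-CodonPlus and purified on Ni–NTA. A custom Agilent array, made double-stranded by primer extension with Cy5-dUTP and blocked with 2% BSA, was incubated with 200 nM protein in PBS, 2% BSA, salmon testes DNA and 50 µM zinc acetate at 25 °C for 1 h and then washed.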
In the case of “TTTGACAATGGCAAAATGTCAATTTTCTCCCATCCCGCGACGGAGTCACCTAGTGCAG”, the binding signal is 8540 fluorescence intensity (a.u.).

On to “ATTAAAATTATGAAATTTTAATGATTCATTAATCTCAAGACGGAGTCACCTAGTGCAG”, for which the binding signal is 14100 fluorescence intensity (a.u.).

Regarding “TCCCCACTGAACTTAACAGACTGACAGTCACATTTACTGTCGGAGTCACCTAGTGCAG”, the binding signal was 5760 fluorescence intensity (a.u.). The same measure for “TATTTCAATCACAGGGAAGTAGACCATTTCAGGAACGCAACGGAGTCACCTAGTGCAG”: 22900 fluorescence intensity (a.u.). For “AGTTTCAGATAGGAAAATTGACGCATTCGATGACAGTGTTCGGAGTCACCTAGTGCAG” the value was 4020 fluorescence intensity (a.u.); for “TTGATGACTGGCTCATAATGTTCTGTAATCTATTCTATACCGGAGTCACCTAGTGCAG”, 19500 fluorescence intensity (a.u.); for “ATCCCACCTACTATCATTGTTAATTTGCAAATTATCCCTTCGGAGTCACCTAGTGCAG”, 5320 fluorescence intensity (a.u.). For “ATCATAATGATAGAAAGATGCCGAAGGGACATAGGCCCATCGGAGTCACCTAGTGCAG” the value was 7430 fluorescence intensity (a.u.); for “ATGATTTAAAATGACATCAAAGTGAAAGTTAAGGGATCTCCGGAGTCACCTAGTGCAG”, 7770 fluorescence intensity (a.u.); for “TCTTGCATTGACAGCCGCATCCACCCTATATATGAATCAACGGAGTCACCTAGTGCAG”, 3660 fluorescence intensity (a.u.). As for “CGAGTTGTTTAGTGCAATTAACACCGCGATTGCAATCTGCCGGAGTCACCTAGTGCAG”, the binding signal is 5230 fluorescence intensity (a.u.). Turning to “CATCAATGATATTAGAATTATGATATATGCGATATCACATCGGAGTCACCTAGTGCAG”, the binding signal was 4640 fluorescence intensity (a.u.). The same measure for “GGTTAGTTTTGATTAGGTGTCATTTAGTTTTAAATCGCCTCGGAGTCACCTAGTGCAG”: 8350 fluorescence intensity (a.u.); for “GCTGATTAGACTATGTCAATGATCCATGTCATCGAAATCCCGGAGTCACCTAGTGCAG”: 23100 fluorescence intensity (a.u.). On to “CTTACTCCTAATTACTAAAGTGGTAGTGCCCGCAATTAGTCGGAGTCACCTAGTGCAG”, for which the binding signal was 4100 fluorescence intensity (a.u.). Take “TGTTAAATTATAAATGTGGTTTTACAGTTTAATGTTTCTCCGGAGTCACCTAGTGCAG”: the binding signal was 15600 fluorescence intensity (a.u.).

In the case of “CCAAACAGTCCAGATTGCCACTCAAATTTTGAGAGTCCAACGGAGTCACCTAGTGCAG”, the binding signal is 10100 fluorescence intensity (a.u.). The same measure for “GCACATAATTGGACGAAAACCAAAGTTGTTCGACTGGGTACGGAGTCACCTAGTGCAG”: 30500 fluorescence intensity (a.u.). The same measure for “CAGATTGACCAAGTGGCGCCGCAGTAGCCGCGTCGGCCTCCGGAGTCACCTAGTGCAG”: 6790 fluorescence intensity (a.u.); for “CCAAAATTGAAAGTTTGGTTGAAATTGGAACAATGTGACGCGGAGTCACCTAGTGCAG”: 26200 fluorescence intensity (a.u.). The same measure for “ATAAATTGGCGCGATTGGTGGGAATGGGAGGGCGTACCGCCGGAGTCACCTAGTGCAG”: 31800 fluorescence intensity (a.u.); for “TTCGTGTAATTGAAGAACTTAATATTTTAAGATAAGAAAACGGAGTCACCTAGTGCAG”: 16000 fluorescence intensity (a.u.); for “ATCTGAACAGCCCCTAAGTCTAGCAATAGCATTGAACCAACGGAGTCACCTAGTGCAG”: 4070 fluorescence intensity (a.u.).

Consider “TGGAGTGGTGATTTGCTCTCTCTTGAGTGTTGATTAGTGGCGGAGTCACCTAGTGCAG”, for which the binding signal is 9250 fluorescence intensity (a.u.). The same measure for “TATATATATATATATATATATACACGATAACTATTTTAGTCGGAGTCACCTAGTGCAG”: 5720 fluorescence intensity (a.u.). The same measure for “TTTTGATGTGATCTAAACACACCCTAAACAACACCAGGATCGGAGTCACCTAGTGCAG”: 5880 fluorescence intensity (a.u.); for “CCCCAATCAAATTCTTGAAGAAATCAACAAAATTTCCTGACGGAGTCACCTAGTGCAG”: 7860 fluorescence intensity (a.u.). The same measure for “TTGATTTTAAATTTGATTTTAAGATATTTTCAATGTATTTCGGAGTCACCTAGTGCAG”: 16800 fluorescence intensity (a.u.); for “TTTGGAAGTAATGAAGATTGACAATACTAATGGAAGAATACGGAGTCACCTAGTGCAG”: 4160 fluorescence intensity (a.u.); for “TGTAATTTATTTTATTATTAAACTATTAAATGTGTATCCGCGGAGTCACCTAGTGCAG”: 21900 fluorescence intensity (a.u.). With “AGGCTAATTGGCATCCGCATCACGGCAATACACATAGCGTCGGAGTCACCTAGTGCAG”, the binding signal is 24000 fluorescence intensity (a.u.). For the sequence “AAAGACAATCATCTCGAACTCACCCTCCCACGCGTCCACCCGGAGTCACCTAGTGCAG”, the binding signal is 3300 fluorescence intensity (a.u.).

For the sequence “AATATTTTATAATTATTTAGATGACATGTAGGAACGAGGACGGAGTCACCTAGTGCAG”, the binding signal was 9730 fluorescence intensity (a.u.).

As for “TTAGCCGACTAATTACGAAATGACACGTGTCAAGTTACAACGGAGTCACCTAGTGCAG”, the binding signal is 6110 fluorescence intensity (a.u.).

For “AAATAAAATAAATTGGACACAGAAACTCACGACTGTATTTCGGAGTCACCTAGTGCAG”, the binding signal is 23600 fluorescence intensity (a.u.). For “TTGAATCAAATTTGAAATTTGTTTTGGTGGAGTGTTGCATCGGAGTCACCTAGTGCAG” the value was 10900 fluorescence intensity (a.u.); for “AGCAATAGTGGGACGGTAGATTGGCTGTCATCGTCACTACCGGAGTCACCTAGTGCAG”, 3400 fluorescence intensity (a.u.); for “ATTACTTTTGAAATTAAGTAAATTACTTTAAATGTTTGAACGGAGTCACCTAGTGCAG”, 5190 fluorescence intensity (a.u.).

On to “AGAAATTTCATTATTTTAAGAAAGTTTGATTATAGAGTTGCGGAGTCACCTAGTGCAG”, for which the binding signal was 3150 fluorescence intensity (a.u.). The same measure for “ATGAATTGACTATAGATAAATTGGAGCCAATAGTGGGCTACGGAGTCACCTAGTGCAG”: 32500 fluorescence intensity (a.u.); for “TTTCTCATGATAATCATTTGCAATCACCAAGGAGTGAAATCGGAGTCACCTAGTGCAG”: 14900 fluorescence intensity (a.u.); for “AAGGTTGTTAATTACAAACCATGTTTCGTACTACAACTCTCGGAGTCACCTAGTGCAG”: 4580 fluorescence intensity (a.u.). The same measure for “ATTATATACATGTTAATTGTGTATTTATAGCATTTAACCTCGGAGTCACCTAGTGCAG”: 5130 fluorescence intensity (a.u.); for “AGTAAATTGGAGGTCGACATCCGCTTCTTCGTATGTGCCTCGGAGTCACCTAGTGCAG”: 29800 fluorescence intensity (a.u.); for “TTCAAATCTATCTCGCTGACAGGTGGGCCCAGTCCAATGTCGGAGTCACCTAGTGCAG”: 5340 fluorescence intensity (a.u.). “GTTGACGGTCTCCCAATCATATCACGTATAAGCATTGGGGCGGAGTCACCTAGTGCAG”: the binding signal is 8830 fluorescence intensity (a.u.).

On to “TGAAATTTACTCAATTTTGTGTGGTGAAGTTGTCGACGTGCGGAGTCACCTAGTGCAG”, for which the binding signal was 13400 fluorescence intensity (a.u.). The same measure for “CAAGTGAAGAAAGACTGTTAATTGCAAATTGCCGTGCGGACGGAGTCACCTAGTGCAG”: 5450 fluorescence intensity (a.u.); for “AGGAGATATTGATTTGTATAAATTACCACAAAATTGTGTGCGGAGTCACCTAGTGCAG”: 34600 fluorescence intensity (a.u.). The same measure for “AGTATCCAATTACACGGTGTAAAGCTCGCTACAGTTCGATCGGAGTCACCTAGTGCAG”: 3590 fluorescence intensity (a.u.); for “GGTTAATTGCATTGCGTCCGCGTTGGGTTTGCGTTGCATGCGGAGTCACCTAGTGCAG”: 32500 fluorescence intensity (a.u.); for “AAGACTAATTGGCATTGCCTCTTGTCACAGCGTAATTTAACGGAGTCACCTAGTGCAG”: 17800 fluorescence intensity (a.u.). For “TATTCATCAGAGTGATTTGTTCTGGCGTTTGGGCAAAATCCGGAGTCACCTAGTGCAG” the value was 4050 fluorescence intensity (a.u.); for “ATCCAATCTACCATATAGTTCATATTCATTATGTGACACACGGAGTCACCTAGTGCAG”, 3180 fluorescence intensity (a.u.).
